# Results from PubChem BioAssay AID651820 (National Center for Advancing Translational Sciences (NCATS), 2012).
# Several values for one entry are separate records, joined by “and”; a condition that tells them apart may be missing. Equal values may be shown once. About 12,000 (3.5%) of roughly 340,000 compounds were called active. Inconclusive results, whose numbers are uncertain, are shown with a selection of clear calls. Calls come from the whole dose curve; as a rule, active = well fitted inhibition curve with a large enough effect; inconclusive = small, poorly fitted or top-dose-only effect, or another doubt; inactive = no such curve, though single readings can be large or run the other way. Where the call is inconclusive, the potency comes from a doubtful curve fit.
# Test: qHTS Assay for Inhibitors of Hepatitis C Virus (HCV)
# Conditions: Huh7.5.1 HCVcc-Cre (HCVcc is cell-culture hepatitis C virus) infection, luciferase reporter, 44 h; activity change, negative = inhibition: at 41.8 µM (top of the series)
# How it was run: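 1,000 cells/well; 4 h culture; + compound; + HCVcc-Cre (~0.5 moi); 44 h; luciferase substrate, RT 15 min; read 15 sec.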
# % is set by controls: 0 for no effect and ±100 for the full control effect; potency is the fitted concentration of half-maximal effect; tags give direction and shape of the fitted curve.
Structure (SMILES),Potency,"activity change, negative = inhibition"
COc1ccccc1NC(=O)CCN1CCN(c2ccc(Cl)cc2)CC1,"inconclusive: 22.4 µM [inhibitor, single point]",
O=C(Cn1c(NCCCO)nc2ccccc21)c1ccc(Cl)cc1Cl,,inactive: 37.2%
Brc1cc2c(cc1/C=N/Nc1nc(N3CCOCC3)nc(N3CCOCC3)n1)OCO2,"inconclusive: 1 µM [inhibitor, full curve]",
Cc1onc(-c2ccccc2)c1C(=O)N1CCCSC1=Nc1ccccc1,inactive,
COc1cc(-c2nc(CN(C)Cc3nnc(C)o3)c(C)o2)ccc1F,"inconclusive: 15.8 µM [inhibitor, partial curve]",
CN1CCN(c2nc(-c3ccncc3)nc3ccccc23)CC1,"inconclusive: 22.4 µM [inhibitor, single point]",
CC(=O)N1CCSc2ccc(S(=O)(=O)NCc3ccc(F)cc3)cc21,"inconclusive: 31.6 µM [inhibitor, single point]",
CCCCCn1c2c(c(=N)c3ccccc31)CCC2,"inconclusive: 35.5 µM [inhibitor, partial curve]",
Cc1nc2c(O)c3c(c(O)c2nc1C)C1C=CC3CC1,active: 7.94 µM,
COc1ccc(-c2sc3ccc(N4CCOCC4)cc3c2C#Cc2ccsc2)cc1,"inconclusive: 20 µM [inhibitor, single point]",
CCOc1ncccc1C(=O)Nc1ccc(OC)c(S(=O)(=O)N2CCCCC2)c1,"inconclusive: 11.2 µM [inhibitor, partial curve]",
CCCCCCn1nc(C(=O)OCC(=O)c2c(N)n(C)c(=O)n(C)c2=O)c2ccccc2c1=O,"inconclusive: 10 µM [inhibitor, partial curve]",
O=C(Cc1noc2ccccc12)Nc1ccc(Cl)cc1,,inactive: 8.87%
Cc1cccc(C)c1NC(=O)CNC(=O)c1cncc(Br)c1,,inactive: 3.34%
CSc1cccc(NC(=S)N(CCCN2CCCC(C)C2)Cc2cccs2)c1 (centres undefined),"inconclusive: 31.6 µM [inhibitor, single point]",
O=[N+]([O-])c1cc(C(F)(F)F)ccc1Sc1ccc2ccccc2n1,,inactive: -7.96%
CC(NC(=O)COC(=O)Cn1cc(C(F)(F)F)ccc1=O)c1ccccc1 (centres undefined),,inactive: 15.9%
O=C(CCN1CCN(Cc2ccccc2)CC1)Nc1ccc(OCc2ccccc2)cc1,"inconclusive: 8.91 µM [inhibitor, partial curve]",
Cn1cc(Br)c(C(=O)Nc2sc3c(c2C(N)=O)CCCC3)n1,,inactive: -8.9%
Cc1ccc(Cn2ncc3c(NN)ncnc32)cc1,"inconclusive: 7.94 µM [inhibitor, partial curve]",
CCOC(=O)N1CCN(CC(=O)Nc2sc(CC)cc2C(=O)c2ccc(OC)cc2)CC1,"inconclusive: 0.631 µM [inhibitor, full curve, poor fit]",
CCc1ccc(N2CSC3=C(C#N)C(c4cccs4)CC(=O)N3C2)cc1 (centres undefined),"inconclusive: 31.6 µM [inhibitor, single point]",
CCOC(=O)C1=C(C)NC(C)=C(C(=O)OCC)C1C(=O)OCC(=O)NC(C)c1ccccc1 (centres undefined),"inconclusive: 7.94 µM [inhibitor, partial curve]",

Structure (SMILES),Potency,"activity change, negative = inhibition"
CC(C)C(C(=O)Nc1ccccc1F)N1C(=O)c2ccccc2C1=O (centres undefined),,inactive: 20.9%
CC(=O)N(C(C)=O)c1nc2nc(C)cc(C)n2n1,,inactive: 27.5%
CCN(CC)CCN(C(=O)c1ccc2c(c1)CCCC2)c1nc2ccc(OC)cc2s1,"inconclusive: 2 µM [inhibitor, partial curve, poor fit]",
COc1cc(C(=O)OCC(=O)c2cc(C)n(C)c2C)cc(NC(=O)c2ccco2)c1OC,"inconclusive: 0.501 µM [inhibitor, full curve]",
Cc1ccc2c(c1)-c1nc3ccccc3cc1C2=NC1CCCCC1,"inconclusive: 31.6 µM [inhibitor, single point]",
CCN(CC)C(=O)CSCc1cnn(-c2ccccc2)c1-n1cccc1,"inconclusive: 22.4 µM [inhibitor, single point]",
COc1cc(NC(C)CCc2ccccc2)cc(OC)c1OC (centres undefined),,inactive: -4.09%
O=C(COc1ccc(S(=O)(=O)N2CCCCC2)cc1)N1CCN(Cc2ccccc2)CC1,"inconclusive: 2.82 µM [inhibitor, partial curve, poor fit]",
COCc1cc(=O)[nH]c2cc(NC(=O)C3CC3)c(C)cc12,,inactive: 9.23%
NNc1nc2c(-c3cccc(C(F)(F)F)c3)nnn2c2ccccc12,active: 14.1 µM,
CN(CC(=O)Nc1ccc(OC(F)(F)F)cc1)C1CCCCC1,"inconclusive: 22.4 µM [inhibitor, single point]",
Cn1c2ccccc2c2ccc3c(c21)C(=O)C=CC3=O,"inconclusive: 20 µM [inhibitor, partial curve, poor fit]",
COc1ccc2c(c1)CC/C(=C\C=C\c1ccccc1)C2=O,"inconclusive: 31.6 µM [inhibitor, single point]",
COc1ccc(N(C)C(=S)Nc2ccc3nc(C)c(C)nc3c2)cc1,,inactive: 11.9%
CSC(=S)N/N=C/c1c[nH]c2ccccc12,"inconclusive: 3.55 µM [inhibitor, partial curve]",
COc1ccc(C)cc1-n1nnnc1SCC(=O)Nc1cccnc1Cl,"inconclusive: 31.6 µM [inhibitor, single point]",
O=C1NC[C@H](c2ccccc2)OC(=O)[C@@H](Cc2ccc(F)cc2)C/C=C\C[C@H]1CC(=O)N(CCO)Cc1ccccc1,"inconclusive: 7.94 µM [inhibitor, partial curve]",
COCC(C)n1c(C)cc(C(=O)CSc2nc3ccccc3c(=O)[nH]2)c1C (centres undefined),"inconclusive: 10 µM [inhibitor, partial curve]",
c1ccc2c(c1)oc1c(N3CCN(Cc4ccc5c(c4)OCO5)CC3)ncnc12,"inconclusive: 2.24 µM [inhibitor, full curve] and inconclusive: 20 µM [inhibitor, single point]",
CCOC(=O)c1c(C)[nH]c(C)c1C(=O)COC(=O)c1ccc(Cl)nc1,,inactive: 4.61%
COc1ccc(C(=O)N/N=C/c2ccc(N3CCOCC3)o2)cc1OC,,inactive: 11.2%
FC(F)(F)c1nnc2n1N=C(c1cccs1)CS2,"inconclusive: 5.62 µM [inhibitor, single point]",
COCCn1c(C)cc(C(=O)COC(=O)c2n[nH]c3ccccc23)c1C,"inconclusive: 3.98 µM [inhibitor, partial curve]",

Structure (SMILES),Potency,"activity change, negative = inhibition"
CN(Cc1ccccc1)S(=O)(=O)c1ccc(N2CCCC2=O)cc1,"inconclusive: 12.6 µM [inhibitor, single point]",
COc1ccc(C)cc1NC(=O)C(OC(=O)c1ccc([N+](=O)[O-])o1)c1ccccc1 (centres undefined),"inconclusive: 31.6 µM [inhibitor, single point]",
O=C1NC(CCO)C(=O)NC1CCO (centres undefined),,inactive: -6.6%
COc1ccccc1CC(=O)N1CCN(c2ccc(F)cc2)CC1,"inconclusive: 31.6 µM [inhibitor, single point]",
Cc1ccc(C)c(OCCn2cc(/C=C(\C#N)C(=O)NCC3CCCO3)c3ccccc32)c1 (centres undefined),"inconclusive: 5.62 µM [inhibitor, full curve, poor fit]",
CN1C(=O)N(C)C(=O)C2(Cc3cc(NC(=O)c4ccccc4)ccc3N3CCCC32)C1=O (centres undefined),,inactive: 7.81%
COc1ccc(CCNC(=O)C2CCN(S(=O)(=O)N3CC(C)CC(C)C3)CC2)cc1OC (centres undefined),"inconclusive: 11.2 µM [inhibitor, partial curve]",
CCCS(=O)(=O)c1nnnn1-c1cccc(OC)c1,active: 8.91 µM,
CCOc1ccc(CCNC(=O)Cn2cccc2C(=O)c2ccccc2C)cc1OCC,"inconclusive: 3.55 µM [inhibitor, full curve, poor fit]",
Cn1cnnc1Sc1cc(N2CCN(S(=O)(=O)c3ccc(Cl)c(Cl)c3)CC2)ccc1[N+](=O)[O-],"inconclusive: 2.82 µM [inhibitor, full curve]",
O=S(=O)(NCCOCC(F)(F)F)c1ccc2oc3ccccc3c2c1,"inconclusive: 0.562 µM [inhibitor, full curve, poor fit]",
COc1ccc(C(=O)OCCc2cc3ccccc3c(=O)o2)cc1,"inconclusive: 20 µM [inhibitor, single point]",
O=C(/C=C/c1ccco1)N1CCN(C/C=C/c2ccccc2)CC1,"inconclusive: 3.98 µM [inhibitor, full curve, poor fit]",
NS(=O)(=O)c1ccc(CCNc2nc(CN3CCCCC3)nc3sc4c(c23)CCC4)cc1,"inconclusive: 12.6 µM [inhibitor, single point]",
COc1cc(OC)cc(C(=O)NC(C(=O)NCCc2ccccn2)C(C)C)c1 (centres undefined),,inactive: 17.6%
CCCOc1ccc(-c2cnc(SCC(N)=O)nc2N)cc1,,inactive: 0.305%
O=C(NCc1ccccc1Cl)C1CCN(C(=O)c2sccc2-n2cccc2)CC1,"inconclusive: 7.08 µM [inhibitor, partial curve]",
CN(Cc1ccc(C(C)(C)C)cc1)C(=O)Cc1ccc(S(=O)(=O)N2CCOCC2)s1,"inconclusive: 31.6 µM [inhibitor, single point]",
Oc1ccc(Br)cc1-c1nc2cnccn2c1NC1CCCC1,active: 11.2 µM,
O=C(CSc1nc(-c2ccccc2)cs1)Nc1ccccc1[N+](=O)[O-],"inconclusive: 12.6 µM [inhibitor, single point]",
COc1cc2c(cc1NC(=O)Nc1cccc(C)c1)oc1ccccc12,"inconclusive: 0.562 µM [inhibitor, full curve]",
CC(=O)c1sc(NC(=O)CCCOc2ccccc2C)nc1C,,inactive: -14.9%
COc1ccc(S(=O)(=O)N2CCCCCC2)cc1NC(C)C(=O)Nc1ccc(NC(C)=O)cc1 (centres undefined),,inactive: -14%
